Reference: PMC6919601, “Identification of Plasmodium dipeptidyl aminopeptidase allosteric inhibitors by high throughput screening” (PLoS ONE, 2019)
Screen size: about 110,000 compounds; about 230 (0.21%) showed an effect of 50% or more. The list shows a part of the results.

biological target: DPAP1 (Plasmodium falciparum, UniProt Q8IIJ9); assay: primary screen, percent inhibition; read by cleavage of a fluorogenic dipeptide substrate; higher = more effect of the substance; set-up: species or system P. falciparum D10 trophozoite lysates; single well
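Note: 30 min substrate incubation versus DMSO and 10 µM JCP410 controls.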

Sequence of DPAP1 (Q8IIJ9 whole entry, looked up): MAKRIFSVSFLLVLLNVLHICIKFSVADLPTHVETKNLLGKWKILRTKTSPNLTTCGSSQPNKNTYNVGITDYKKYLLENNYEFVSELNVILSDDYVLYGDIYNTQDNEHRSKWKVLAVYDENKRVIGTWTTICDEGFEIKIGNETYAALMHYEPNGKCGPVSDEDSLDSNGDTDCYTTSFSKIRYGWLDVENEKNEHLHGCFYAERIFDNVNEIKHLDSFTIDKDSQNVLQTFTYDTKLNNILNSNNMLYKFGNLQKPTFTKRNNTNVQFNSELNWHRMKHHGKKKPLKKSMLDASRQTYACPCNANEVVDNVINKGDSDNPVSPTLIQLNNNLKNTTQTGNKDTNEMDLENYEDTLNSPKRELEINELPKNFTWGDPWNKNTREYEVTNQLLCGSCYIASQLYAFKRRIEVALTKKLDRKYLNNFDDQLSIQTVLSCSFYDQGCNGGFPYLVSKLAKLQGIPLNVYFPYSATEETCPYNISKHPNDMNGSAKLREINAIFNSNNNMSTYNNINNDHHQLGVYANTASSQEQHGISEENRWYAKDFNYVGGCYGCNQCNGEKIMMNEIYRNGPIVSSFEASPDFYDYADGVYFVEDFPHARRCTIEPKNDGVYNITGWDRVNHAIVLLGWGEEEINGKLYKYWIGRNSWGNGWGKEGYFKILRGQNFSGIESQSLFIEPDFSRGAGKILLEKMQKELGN

| Structure (SMILES) | % Inhibition @ 10 uM |
| --- | --- |
| CC1CC(C)CN(C(=O)CNS(=O)(=O)c2ccc(Br)s2)C1 (stereo not shown) | -3.36% |
| CCn1nc(NC(=O)c2cccc(Cl)c2)c2cc3cccc(C)c3nc21 | -4.42% |
| Cc1cccc(-c2cc(C(=O)Nc3cccnc3)c3ccccc3n2)c1 | 13% |
| O=c1oc2ccccc2n1-c1nc2ccccc2o1 | 0.687% |
| CC(=O)C1(c2ccccc2)CCN(S(=O)(=O)c2ccccc2F)CC1 | 5.43% |
| COCCNC(=O)C1CCCN(S(=O)(=O)N(C)C2CCCCC2)C1 (stereo not shown) | -2.86% |
| Cc1ccc2nc(O)c3cc(C(=O)NCCCN(C)Cc4ccccc4)sc3c2c1 | -1.66% |
| Cc1nn2c(=O)cc(COc3ccc(/C=C(\C#N)c4nc5ccccc5[nH]4)cc3Cl)nc2s1 | -2.19% |
| Cc1cc(-c2ccc(C(C)C)cc2)n(-c2ccccn2)n1 | -3.13% |
| O=C(Cn1cnc2ccccc2c1=O)c1ccccc1 | -4.67% |
| Cc1cc(C)nc(NS(=O)(=O)c2ccc(Nc3nc(-c4sc(N)nc4C)cs3)cc2)n1 | -0.088% |
| Cc1cc(Oc2ccc(=O)n(C)n2)nc(SCc2ccccc2)n1 | 1.31% |
| O=C(Cc1ccccc1)Nc1ccc(C(=O)O)cc1 | 10.6% |
| CC(C)C[C@H](NC(=O)[C@@H]1CSC(=S)N1)C(=O)NCC#N | 1.71% |
| O=C(NCc1cccn1Cc1ccccc1)NC12CC3CC(CC(C3)C1)C2 | 2.65% |
| C=CCc1cccc2cc(-c3nc4ccccc4[nH]3)c(=O)oc12 | -2.6% |
| O=C1C2C(C(=O)N1CC13C[C@H]4C[C@@H](C1)C[C@@H](C3)C4)C1C=CC2C12CC2 (stereo partly shown) | -8.64% |
| COc1cccc(C2C(C#N)=C(N)Oc3[nH]nc(-c4ccc(C)cc4)c32)c1 (stereo not shown) | -0.968% |
| Cc1ccccc1Cn1c2ccccc2c2cnn(CC(=O)NCCN3CCN(C)CC3)c(=O)c21 | 9.33% |
| c1c(CN2CCCCC2)n[nH]c1C1CCCCC1 | 0.0345% |
| O=C(NCCCN1CCOCC1)C1CCN(S(=O)(=O)N2CCC3(CC2)OCCO3)CC1 | -1.21% |
| COc1ccccc1OCC(=O)Nc1sc2c(c1C(=O)NCc1cccnc1)CCCC2 | 5.66% |
| Cc1c(C(=O)Nc2ccc3ccccc3c2)cnn1-c1ccccc1 | 1.57% |
| CCCCN1C(=O)/C(=C\Nc2ccc(Cl)cc2)C(=O)N(Cc2ccco2)C1=O | -4.75% |
| CC(C)c1ccc(/C=C2/SC(=O)NC2=O)cc1 | 3.66% |

| Structure (SMILES) | % Inhibition @ 10 uM |
| --- | --- |
| O=C(NCc1ccc2c(c1)OCO2)C1CCCN(S(=O)(=O)N2CCOCC2)C1 (stereo not shown) | 1.45% |
| CCCCC(=O)Nc1nonc1-c1ccc(OCCC)c(OCCC)c1 | 0.248% |
| Cn1c(=O)n(Cc2ccccc2)c(=O)c2c1nc(Cl)n2Cc1ccccc1 | -2.26% |
| CCC(C)OC(=O)C1=C(C)NC(=O)CC1c1ccc(Br)cc1 (stereo not shown) | -2.24% |
| O=C(Nc1cc(Cl)cc(Cl)c1)c1ccc(Br)cc1 | -0.856% |
| CCOC(=O)c1c(C)[nH]c(C)c1S(=O)(=O)NCC(=O)NCc1cccs1 | -2.13% |
| Cc1nn(-c2ccc(C34CC5CC(CC(C5)C3)C4)cc2)c(O)c1/C=N/c1ccc(S(N)(=O)=O)cc1 | -2.64% |
| O=C(Nc1ccc2c(c1)C(=O)NC2=O)c1ccc(NC(=O)c2ccco2)cc1 | -3.45% |
| CC(C)(C)C1CCc2c(sc(NC(=O)c3ccco3)c2C(N)=O)C1 (stereo not shown) | 3.17% |
| O=[N+]([O-])c1ccc(-c2cnc(-c3ccccc3)nc2)cc1 | 1.91% |
| CCOC(=O)c1cc(-c2ccccc2)n(-c2ccc(OCC)cc2)n1 | 0.408% |
| CCc1ccc(-c2cc3c(=O)n(CC(=O)NCCCc4ccccc4)nc(C)n3n2)cc1 | 0.623% |
| O=C(Cn1c(=O)n(Cc2ccccc2)c(=O)c2sc3ccccc3c21)NC1CCCCC1 | 5.09% |
| COCCNC(=O)CS(=O)(=O)Cc1nc(-c2ccc(C)cc2)oc1C | -0.138% |
| O=C(COCc1cc(-c2cccs2)on1)NCCc1ccccc1 | 1.86% |
| CCOc1ccc(CNC(CC(C)C)C(=O)O)cc1 (stereo not shown) | 1.42% |
| Cc1cc2c(c(=O)n1Cc1cccnc1)C(Cc1ccccc1)C(C#N)=C(N)O2 (stereo not shown) | -3.14% |
| COc1cc(/C=C2\SC(Nc3ccccc3)=NC2=O)ccc1OCC(=O)O | 2.92% |
| COc1ccc(Cl)cc1-n1cccc1/C=C1/C(=N)N2C(C)=CSC2=NC1=O | -3.35% |
| Cc1oc(-c2cccs2)nc1CN1CCCC(C(=O)NC2CCCc3ccccc32)C1 (stereo not shown) | 0.689% |
| CCN(CC)CCNC(=O)c1ccc(CS(=O)(=O)c2ccc(Br)cc2)o1 | 2.14% |
| O=C(CSCc1cnn(-c2ccccc2)c1-n1cccc1)NCC1CCCO1 (stereo not shown) | 5.42% |
| COc1cc(OC)cc(C(=O)N2CCN(Cc3cc(OC)c(OC)c(OC)c3)CC2)c1 | -6.64% |
| CC1(C)CC(=O)C2=C(C1)NC(=O)CC2c1ccc(Cl)c(Cl)c1 (stereo not shown) | -1.29% |
